# From PMC9911399, “Two distinct binding modes provide the RNA-binding protein RbFox with extraordinary sequence specificity”
# Where a chain is given by its changes, count along the chain named. This is one part of the list.
# T1: RBFOX1 RRM (Homo sapiens, UniProt Q9NWB1 109-208)
# T1 sequence: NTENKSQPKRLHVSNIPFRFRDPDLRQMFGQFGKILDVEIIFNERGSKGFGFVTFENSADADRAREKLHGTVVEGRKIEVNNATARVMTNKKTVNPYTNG
# B1: CGGAUGC (DNA:RNA)
# RNA: GGGAGACCGGAAUUCAGAUUGUCCCGGAUGCUUAAAUCCCGUCGUAGCCACCA
# DNA 1: CAATCTGAATTCCGGTCTCCC
# DNA 2: TGGTGGCTACGACGGGATT
# B2: UGGUCGG (DNA:RNA)
# RNA: B1 RNA with C25U, A28U, U29C, C31G
# DNA 1: CAATCTGAATTCCGGTCTCCC
# DNA 2: TGGTGGCTACGACGGGATT
# B3: UUAAGUA (DNA:RNA)
# RNA: B1 RNA with C25U, G26U, G27A, U29G, G30U, C31A
# DNA 1: CAATCTGAATTCCGGTCTCCC
# DNA 2: TGGTGGCTACGACGGGATT
# B4: AUGGCGU (DNA:RNA)
# RNA: B1 RNA with C25A, G26U, A28G, U29C, C31U
# DNA 1: CAATCTGAATTCCGGTCTCCC
# DNA 2: TGGTGGCTACGACGGGATT
# B5: GGCCACG (DNA:RNA)
# RNA: B1 RNA with C25G, G27C, A28C, U29A, G30C, C31G
# DNA 1: CAATCTGAATTCCGGTCTCCC
# DNA 2: TGGTGGCTACGACGGGATT
# B6: CUUACUA (DNA:RNA)
# RNA: B1 RNA with G26U, G27U, U29C, G30U, C31A
# DNA 1: CAATCTGAATTCCGGTCTCCC
# DNA 2: TGGTGGCTACGACGGGATT
# B7: GCAACCA (DNA:RNA)
# RNA: B1 RNA with C25G, G26C, G27A, U29C, G30C, C31A
# DNA 1: CAATCTGAATTCCGGTCTCCC
# DNA 2: TGGTGGCTACGACGGGATT
# B8: GCCUGUG (DNA:RNA)
# RNA: GGGAGACCGGAAUUCAGAUUGUCCGCCUGUGUUAAAUCCCGUCGUAGCCACCA
# DNA 1: CAATCTGAATTCCGGTCTCCC
# DNA 2: TGGTGGCTACGACGGGATT
# B9: CUGUCAG (DNA:RNA)
# RNA: B1 RNA with G26U, A28U, U29C, G30A, C31G
# DNA 1: CAATCTGAATTCCGGTCTCCC
# DNA 2: TGGTGGCTACGACGGGATT
# B10: AUUUCGC (DNA:RNA)
# RNA: B1 RNA with C25A, G26U, G27U, A28U, U29C
# DNA 1: CAATCTGAATTCCGGTCTCCC
# DNA 2: TGGTGGCTACGACGGGATT
# B11: GUGCUAU (DNA:RNA)
# RNA: B1 RNA with C25G, G26U, A28C, G30A, C31U
# DNA 1: CAATCTGAATTCCGGTCTCCC
# DNA 2: TGGTGGCTACGACGGGATT
# B12: UCACCUC (DNA:RNA)
# RNA: B8 RNA with G25U, C27A, U28C, G29C, G31C
# DNA 1: CAATCTGAATTCCGGTCTCCC
# DNA 2: TGGTGGCTACGACGGGATT
# B13: GGGCUAA (DNA:RNA)
# RNA: B1 RNA with C25G, A28C, G30A, C31A
# DNA 1: CAATCTGAATTCCGGTCTCCC
# DNA 2: TGGTGGCTACGACGGGATT
# B14: AUGAAAU (DNA:RNA)
# RNA: B1 RNA with C25A, G26U, U29A, G30A, C31U
# DNA 1: CAATCTGAATTCCGGTCTCCC
# DNA 2: TGGTGGCTACGACGGGATT
# B15: CGUCACC (DNA:RNA)
# RNA: B1 RNA with G27U, A28C, U29A, G30C
# DNA 1: CAATCTGAATTCCGGTCTCCC
# DNA 2: TGGTGGCTACGACGGGATT
# B16: AAUGCCC (DNA:RNA)
# RNA: B1 RNA with C25A, G26A, G27U, A28G, U29C, G30C
# DNA 1: CAATCTGAATTCCGGTCTCCC
# DNA 2: TGGTGGCTACGACGGGATT
# B17: GAUCAUU (DNA:RNA)
# RNA: B8 RNA with C26A, C27U, U28C, G29A, G31U
# DNA 1: CAATCTGAATTCCGGTCTCCC
# DNA 2: TGGTGGCTACGACGGGATT
# B18: UGGCCGU (DNA:RNA)
# RNA: B1 RNA with C25U, A28C, U29C, C31U
# DNA 1: CAATCTGAATTCCGGTCTCCC
# DNA 2: TGGTGGCTACGACGGGATT
# B19: UAAACCC (DNA:RNA)
# RNA: B1 RNA with C25U, G26A, G27A, U29C, G30C
# DNA 1: CAATCTGAATTCCGGTCTCCC
# DNA 2: TGGTGGCTACGACGGGATT
# B20: CGAAGUA (DNA:RNA)
# RNA: B1 RNA with G27A, U29G, G30U, C31A
# DNA 1: CAATCTGAATTCCGGTCTCCC
# DNA 2: TGGTGGCTACGACGGGATT
# B21: AAAGAGC (DNA:RNA)
# RNA: B1 RNA with C25A, G26A, G27A, A28G, U29A
# DNA 1: CAATCTGAATTCCGGTCTCCC
# DNA 2: TGGTGGCTACGACGGGATT
# B22: UAGCUCA (DNA:RNA)
# RNA: B1 RNA with C25U, G26A, A28C, G30C, C31A
# DNA 1: CAATCTGAATTCCGGTCTCCC
# DNA 2: TGGTGGCTACGACGGGATT
# B23: AUUAAAU (DNA:RNA)
# RNA: B1 RNA with C25A, G26U, G27U, U29A, G30A, C31U
# DNA 1: CAATCTGAATTCCGGTCTCCC
# DNA 2: TGGTGGCTACGACGGGATT
# B24: UUUCCAA (DNA:RNA)
# RNA: GGGAGACCGGAAUUCAGAUUGUCCUUUCCAAUUAAAUCCCGUCGUAGCCACCA
# DNA 1: CAATCTGAATTCCGGTCTCCC
# DNA 2: TGGTGGCTACGACGGGATT
# B25: UCUGACC (DNA:RNA)
# RNA: B24 RNA with U26C, C28G, C29A, A30C, A31C
# DNA 1: CAATCTGAATTCCGGTCTCCC
# DNA 2: TGGTGGCTACGACGGGATT
# B26: AUGGUUG (DNA:RNA)
# RNA: B1 RNA with C25A, G26U, A28G, G30U, C31G
# DNA 1: CAATCTGAATTCCGGTCTCCC
# DNA 2: TGGTGGCTACGACGGGATT
# B27: AACAAGC (DNA:RNA)
# RNA: B1 RNA with C25A, G26A, G27C, U29A
# DNA 1: CAATCTGAATTCCGGTCTCCC
# DNA 2: TGGTGGCTACGACGGGATT
# B28: CGGAAUG (DNA:RNA)
# RNA: B1 RNA with U29A, G30U, C31G
# DNA 1: CAATCTGAATTCCGGTCTCCC
# DNA 2: TGGTGGCTACGACGGGATT
# B29: AAUUAGA (DNA:RNA)
# RNA: B24 RNA with U25A, U26A, C28U, C29A, A30G
# DNA 1: CAATCTGAATTCCGGTCTCCC
# DNA 2: TGGTGGCTACGACGGGATT
# B30: GACCGAG (DNA:RNA)
# RNA: B8 RNA with C26A, U28C, U30A
# DNA 1: CAATCTGAATTCCGGTCTCCC
# DNA 2: TGGTGGCTACGACGGGATT
# B31: GCCCACG (DNA:RNA)
# RNA: B8 RNA with U28C, G29A, U30C
# DNA 1: CAATCTGAATTCCGGTCTCCC
# DNA 2: TGGTGGCTACGACGGGATT
# Molecular target: T1, RBFOX1 RRM
# Experiment: EMSA; HiTS-Eq, 1 nM pool, 10 min; buffer printed only for the single-RNA assays: 10 mM Tris pH 7.5, 150 mM NaCl, 3.4 mM EDTA, 0.001% NP-40, 30 C
# Settings: tags: His6 N-terminal (pET28a); label: 5' 32P
# In short: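 These values rest on relative association constants, computed from read-count changes of each RNA species versus the control reaction and normalised to the cognate motif. Reads came from free RNA recovered by 8% native PAGE after purified RbFox RRM (wild type or mutant) at increasing concentrations was equilibrated for 10 min in 50 µL with 1 nM of a 5′-radiolabelled pool with 7 randomized nucleotides and DNA-annealed flanks.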
row,Binder,binding signal
1,B1,0.0275 KA relative to UGCAUGU
2,B2,0.0166 KA relative to UGCAUGU
3,B3,0.01 KA relative to UGCAUGU
4,B4,0.0199 KA relative to UGCAUGU
5,B5,0.00911 KA relative to UGCAUGU
6,B6,0.00319 KA relative to UGCAUGU
7,B7,0.004 KA relative to UGCAUGU
8,B8,0.034 KA relative to UGCAUGU
9,B9,0.015 KA relative to UGCAUGU
10,B10,0.00798 KA relative to UGCAUGU
11,B11,0.0156 KA relative to UGCAUGU
12,B12,0.00109 KA relative to UGCAUGU
13,B13,0.0063 KA relative to UGCAUGU
14,B14,0.00417 KA relative to UGCAUGU
15,B15,0.00293 KA relative to UGCAUGU
16,B16,0.00474 KA relative to UGCAUGU

row,Binder,binding signal
1,B17,0.0063 KA relative to UGCAUGU
2,B18,0.023 KA relative to UGCAUGU
3,B19,0.000267 KA relative to UGCAUGU
4,B20,0.00518 KA relative to UGCAUGU
5,B21,0.00412 KA relative to UGCAUGU
6,B22,0.00897 KA relative to UGCAUGU
7,B23,0.000447 KA relative to UGCAUGU
8,B24,0.00493 KA relative to UGCAUGU
9,B25,0.0115 KA relative to UGCAUGU
10,B26,0.0212 KA relative to UGCAUGU
11,B27,0.00363 KA relative to UGCAUGU
12,B28,0.0596 KA relative to UGCAUGU
13,B29,0.00753 KA relative to UGCAUGU
14,B30,0.0115 KA relative to UGCAUGU
15,B31,0.00887 KA relative to UGCAUGU
